From ChEMBL document CHEMBL4888484, “Replenishing the malaria drug discovery pipeline: Screening and hit evaluation of the MMV Hit Generation Library 1 (HGL1) against asexual blood stage Plasmodium falciparum ,using a nano luciferase reporter read-out” (2022)
About 540 (0.36%) of roughly 150,000 compounds showed an effect of 50% or more. The list shows a part of the results.

The molecules below were run on Plasmodium falciparum (assay: Primary screen in NF54 nanoGlo assay, in single point, at 2uM, 72h; a lower Z score goes with more inhibition). Details: timepoint 72 hour.
Type: functional, Erythrocyte
For `CCc1cc(=O)n(Cc2ncc(C(C)(C)C)o2)cn1`, the “% Inhibition” value was -2% and the Z score was 0.25. For `Cc1nn(C)cc1NC(=O)CN(C)C1CCCC1`, the “% Inhibition” value was 2% and the Z score was -0.37. For `O=C(C[C@H]1C(=O)NCCN1Cc1ccc2ccccc2c1)NC1CCC1`, the “% Inhibition” value was -16% and the Z score was 2.3. In the case of `C[C@@H](Cc1ccc2c(c1)CCO2)NC(=O)c1ccsc1`, the “% Inhibition” value is reported as 0% and the Z score is reported as -0.02. With `O=C(C[C@@H]1O[C@H](CNS(=O)(=O)c2ccc(Cl)cc2)[C@@H](O)[C@H]1O)N1CCc2ccccc21` the “% Inhibition” value was 33% and the Z score was -3.72. `CN(C)c1noc(CN2CCc3c(F)cc(F)cc3C2)n1` was tested, and the “% Inhibition” value was 10% and the Z score was -0.88. With `CCCCCOCC(=O)Nc1cnn2ccccc12` the “% Inhibition” value was 1% and the Z score was -0.07. `COc1ccnc(N2C[C@H](NC(=O)C(C)(C)OC)[C@@H](C3CC3)C2)n1` was tested, and the “% Inhibition” value was 0% and the Z score was 0.04. `C[C@H]1COCCN1C(=O)NCc1nc2ccccc2[nH]1` was tested, and the “% Inhibition” value was -10% and the Z score was 1.44. With `Cc1cc(Cl)ccc1NC(=O)N(C[C@H]1CCC(=O)N1)C(C)C` the “% Inhibition” value was -4% and the Z score was 0.59. `CN1CC2(CN(C(=O)c3cn(C)nc3C3CC3)C2)OC1=O` was tested, and the “% Inhibition” value was -3% and the Z score was 0.51. For `Cc1nc[nH]c1CN1C[C@H]2CC[C@@H](C1)N(C(=O)CCc1c(C)n[nH]c1C)C2`, the “% Inhibition” value was 3% and the Z score was -0.41. With `COc1c(Br)cccc1C(=O)NCc1nonc1C` the “% Inhibition” value was 9% and the Z score was -1.77. In the case of `C[C@@H](c1ccon1)N(C)C(=O)CCc1nnc(CCCCc2ccccc2)o1`, the “% Inhibition” value is reported as -6% and the Z score is reported as 1.25. In the case of `Cc1cccc(NC(=O)Cn2ncn3c(C)c(C(=O)NCc4ccccc4)c(C)c3c2=O)c1C`, the “% Inhibition” value is reported as -6% and the Z score is reported as 0.91. For `Cc1cc(C(=O)N(Cc2ccccc2)[C@H]2C[C@H]3CC[C@@H](C2)N3C)c(=O)[nH]c1C`, the “% Inhibition” value was -24% and the Z score was 2.61. With `Cc1cc(C)c(C(=O)N2CCC(n3cc(C4CC4)nn3)CC2)cc1C` the “% Inhibition” value was 30% and the Z score was -2.71. With `CC(C)c1nc(-c2ccc3ccccc3n2)n(CCO)n1` the “% Inhibition” value was -1% and the Z score was 0.14. In the case of `O=S(=O)(N1CCCCC1)N(Cc1cccs1)Cc1cccs1`, the “% Inhibition” value is reported as -4% and the Z score is reported as 0.38. With `CC(=O)Nc1cc(-c2ccc(F)cc2)nn1-c1nc(-c2ccc(Cl)cc2)cs1` the “% Inhibition” value was 12% and the Z score was -1.44. With `O=C(Nc1ccccc1N1CCCN(Cc2ccccc2Cl)C1=O)c1ccc(F)cc1F` the “% Inhibition” value was -6% and the Z score was 0.76. With `Cc1ccc2nc(CCCNC(=O)CN3C(=O)CNC3=O)oc2c1` the “% Inhibition” value was -8% and the Z score was 1.61. `O=C(Nc1nnc(CCS(=O)(=O)c2ccccc2)o1)[C@@H]1COc2ccccc2O1` was tested, and the “% Inhibition” value was -9% and the Z score was 1.6. In the case of `Cc1nc(NC(C)C)sc1C(=O)NCC(C)C`, the “% Inhibition” value is reported as -1% and the Z score is reported as 0.15. `O=C(NCc1cccnc1Oc1ccc(F)c(F)c1)[C@@H](O)c1ccccc1` was tested, and the “% Inhibition” value was -9% and the Z score was 1.27. In the case of `CCc1nc2c(c(NCc3cccc(OCCOC)c3)n1)CCNCC2`, the “% Inhibition” value is reported as -3% and the Z score is reported as 0.48. In the case of `O=C(O)c1cc2c(cc1C(=O)Nc1ccccc1C(F)(F)F)=[O+]c1ccccc1-c1ccccc1[O+]=2`, the “% Inhibition” value is reported as -2% and the Z score is reported as 0.33. In the case of `CN(CC(=O)N1CCNC(=O)C1)C[C@]1(O)CCc2ccccc21`, the “% Inhibition” value is reported as 3% and the Z score is reported as -0.45. In the case of `C[C@@H](CNC(=O)c1nc2n(n1)CCCN2)c1cccs1`, the “% Inhibition” value is reported as -15% and the Z score is reported as 1.72. In the case of `O=C(c1ccc(-n2cncn2)nn1)N1CCc2ccccc21`, the “% Inhibition” value is reported as 1% and the Z score is reported as -0.2. For `COC[C@@](C)(C#N)NC(=O)c1ccsc1`, the “% Inhibition” value was -10% and the Z score was 1.03. In the case of `Cn1cc(C2OCCC2CNCc2csc(C3CC3)n2)cn1` (stereo not drawn), the “% Inhibition” value is reported as 1% and the Z score is reported as -0.14. For `CC(=O)N[C@H]1C[C@H]2CN(Cc3cc(Cl)ccc3F)CC(=O)N2C1`, the “% Inhibition” value was -20% and the Z score was 1.78. For `C#CCCC1(CCC(=O)N2CCc3cc(OC)c(Cl)cc3C2)N=N1`, the “% Inhibition” value was 1% and the Z score was -0.16. With `CC1OC(C)C(C(=O)Nc2ccc3c(n2)OCCO3)C1C` (stereo not drawn) the “% Inhibition” value was -16% and the Z score was 2.38. In the case of `CCNc1cnc(-c2noc([C@@H]3CCO[C@H]3c3ccnn3C)n2)cn1`, the “% Inhibition” value is reported as -7% and the Z score is reported as 1.28. For `O=C(Cc1ccccc1)NC[C@H]1CCCN(c2nnnn2-c2ccccc2)C1`, the “% Inhibition” value was -3% and the Z score was 0.38. `COCC1(C(=O)N2CCC(n3cc(C(=O)NCC(C)C)nn3)CC2)CCC1` was tested, and the “% Inhibition” value was -1% and the Z score was 0.13. `CN(C)C[C@H]1CN(Cc2cnn(-c3ccccc3)n2)CCO1` was tested, and the “% Inhibition” value was -10% and the Z score was 1.47. `Cc1cccc(OCC(=O)N[C@H]2CCCN(c3ccc(=O)n(CC4CC4)n3)C2)c1` was tested, and the “% Inhibition” value was -9% and the Z score was 1.2. `CC1(O)CN(S(=O)(=O)c2cccnc2)C1` was tested, and the “% Inhibition” value was 3% and the Z score was -0.44. For `O=C(O)c1cccc(-c2ccc(CNC3CCCCC3)o2)c1`, the “% Inhibition” value was -24% and the Z score was 2.74. For `O=S(=O)(Cc1ccccc1)N1CCC(NCc2ccccn2)CC1`, the “% Inhibition” value was 2% and the Z score was -0.36. With `COc1ccc(CN(C(=O)C2=CCCCO2)c2ccncc2)cc1` the “% Inhibition” value was -11% and the Z score was 1.41. For `C=CCn1nnc(NC(=O)c2ccc3c(c2)OCCO3)n1`, the “% Inhibition” value was 0% and the Z score was -0.04. `CC(C)C(=O)NCC1CCCC1NC(=O)OC(C)(C)C` (stereo not drawn) was tested, and the “% Inhibition” value was 4% and the Z score was -0.55. `Cc1csc(NC(=O)c2ccc3nc(-n4c(C)ccc4C)sc3c2)n1` was tested, and the “% Inhibition” value was -1% and the Z score was 0.2. For `Cc1ccc(CN2CCC[C@](CC3CC3)(C(N)=O)C2)o1`, the “% Inhibition” value was -8% and the Z score was 1.06. In the case of `CC(C)(C)c1ccc(C(=O)Nc2nnc(-c3ccc4c(c3)OCO4)s2)cc1`, the “% Inhibition” value is reported as 3% and the Z score is reported as -0.34. For `O=C(Cn1ccc(-c2cccc(-c3nccs3)c2)n1)NCc1ccco1`, the “% Inhibition” value was -3% and the Z score was 0.36. For `O=C(NCCc1ccccc1)c1ccc(-n2cncn2)nn1`, the “% Inhibition” value was -15% and the Z score was 1.91. `O=C(Nc1cccnc1)[C@H]1CCCN(S(=O)(=O)Cc2ccc(Cl)cc2)C1` was tested, and the “% Inhibition” value was -2% and the Z score was 0.3. For `Cc1cc(C2CCC(C(=O)NCc3ccco3)CN2C(=O)C2CCCC2)ccc1F` (stereo not drawn), the “% Inhibition” value was -10% and the Z score was 1.69. For `CC[C@@H]1CN(C(=O)c2cnc(C(C)C)[nH]c2=O)CC[C@]1(C)O`, the “% Inhibition” value was 7% and the Z score was -0.94.
